± gives the standard deviation of the averaged measurements. Whole data set: some 33,000 sequences, median “E-score (dimensionless, -0.5 to 0.5)” near -0.046, cut for the highest 2% near 0.36. The list shows a part of the results.
test system: T1, SpTbr T-box DNA-binding domain (GST fusion); experiment: PBM E-score of 8-mer (E-score (dimensionless, -0.5 to 0.5)); Tbr is Tbrain of the sea star Patiria miniata (Pm) or the sea urchin Strongylocentrotus purpuratus (Sp); higher = stronger binding preference; most listed sequences are background and not binding sites; conditions: the construct has about 5 more residues each side
T1 sequence: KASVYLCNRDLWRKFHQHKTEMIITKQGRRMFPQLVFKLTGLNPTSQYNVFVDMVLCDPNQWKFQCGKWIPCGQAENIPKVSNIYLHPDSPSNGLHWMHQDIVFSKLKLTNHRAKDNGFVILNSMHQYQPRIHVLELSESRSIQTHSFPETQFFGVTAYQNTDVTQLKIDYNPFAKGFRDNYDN
Procedure, shortened: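 Each ungapped 8-mer received an enrichment E-score from the Universal PBM Analysis Suite, averaged over duplicate arrays. The proteins were Tbr T-box DNA-binding domains, covering the whole T-box plus about five flanking residues, fused to GST and expressed in BL21 E. coli at 20 °C before glutathione affinity purification. Universal Agilent oligonucleotide arrays were made double-stranded by primer extension and incubated with 200 nM protein in PBS (pH 7.5). The arrays were then scanned and quantified, and every 8-mer was scored from probe intensities.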

Sequence | PBM E-score of 8-mer
GCAGTCTA | -0.224 ± 0.041
ATCTGCAG | -0.0713 ± 0.029
GCAGCTAA | -0.0128 ± 0.014
GAAATTAC | -0.0057 ± 0.029
CGCAGTAA | 0.0214 ± 0.042
CGCGACCG | 0.29 ± 0.031
GAGAGCGC | 0.0438 ± 0.017
TCGACTCA | -0.0647 ± 0.016
CAAGCCGG | -0.31 ± 0.11
ACGCCTAT | 0.33 ± 0.0036
AAGCTTTC | -0.0812 ± 0.024
TCAGCAAA | -0.173 ± 0.0059
ATTTCCTA | -0.0922 ± 0.049
AAGTTTCT | 0.0712 ± 0.037
ATCCGTCA | 0.0137 ± 0.11
ACGGGCGG | -0.083 ± 0.0064
AGCATCGG | -0.198 ± 0.033
GGTTTCCA | -0.102 ± 0.013
CGTTAGCA | 0.37 ± 0.0046
GACGAAAA | 0.112 ± 0.0081
AGTTAGTA | -0.0829 ± 0.011
ACTGCTAC | -0.196 ± 0.0054
AGCCGGCT | -0.257 ± 0.054
AGGATCTG | -0.232 ± 0.014
CTTAGCCC | -0.0855 ± 0.09

Sequence | PBM E-score of 8-mer
GTTGTTAA | 0.339 ± 0.034
CTTAGCAC | 0.364 ± 0.0057
GCTATAAA | -0.0322 ± 0.11
CGTTCGTA | -0.134 ± 0.018
ACGTACCG | -0.195 ± 0.03
GAATGATC | 0.000375 ± 0.062
AGGTACCT | -0.0731 ± 0.033
CCTGAATC | -0.0545 ± 0.033
TATGGAGA | -0.189 ± 0.055
GCTAAGAA | 0.0676 ± 0.027
ACCATACA | -0.111 ± 0.023
CGTAAGAG | -0.124 ± 0.042
CAATATGG | 0.0399 ± 0.04
AACCTACG | -0.159 ± 0.083
GTTTTGGA | -0.252 ± 0.0065
CTCGACAA | 0.117 ± 0.049
ACCCGTGG | 0.0269 ± 0.0032
ATCGATAA | 0.0824 ± 0.0096
CAGAGCCA | -0.0586 ± 0.012
ATCCTTAC | 0.051 ± 0.04
ATAGATGA | -0.0521 ± 0.016
CGGGCAAA | -0.205 ± 0.039
AGGCTTTA | -0.204 ± 0.094
ACACGGAA | -0.0377 ± 0.016
GTGAGCCA | 0.0835 ± 0.052

Sequence | PBM E-score of 8-mer
ATAAATAA | -0.291 ± 0.031
CAATGGAA | -0.202 ± 0.08
CCTCTTCA | 0.0934 ± 0.006
ATAAGTAA | 0.0719 ± 0.015
CGGGATCC | -0.123 ± 0.05
CCGTGAAA | 0.245 ± 0.022
CTTTACTA | -0.11 ± 0.025
AACTTGCA | 0.107 ± 0.01
GCCCCTGA | -0.091 ± 0.031
ACGGTTTG | 0.0561 ± 0.011
AATTAGCC | -0.0279 ± 0.041
AGATTATG | -0.283 ± 0.046
AGCGTGGG | -0.0733 ± 0.038
ACATCATA | 0.0379 ± 0.084
CCATCCCC | -0.154 ± 0.021
CACATGCG | 0.149 ± 0.019
CTCTTAGA | -0.2544 ± 0.0022
TCGTCACA | 0.342 ± 0.027
AGAAAAAC | -0.181 ± 0.062
CCGGTCCC | -0.161 ± 0.13
ATTACGAG | -0.0203 ± 0.11
GTAACGAC | 0.0962 ± 0.061
TACCAAAA | -0.0696 ± 0.058
CATTCTTC | 0.0471 ± 0.049
CACTAGCA | 0.164 ± 0.063

Sequence | PBM E-score of 8-mer
AGATACGA | -0.202 ± 0.073
ATGGGCTG | -0.158 ± 0.0039
TCGGCCAA | -0.0802 ± 0.029
CGAATGGC | 0.079 ± 0.051
CAGGGACG | 0.0426 ± 0.11
CAGCCCAA | -0.271 ± 0.026
CCCACTGC | -0.0959 ± 0.098
GGCCACGA | -0.172 ± 0.051
TAGCTCCA | -0.307 ± 0.041
CGAACCGA | 0.187 ± 0.0096
AGTGGCGG | 0.1831 ± 0.00086
TCGTGCCA | 0.182 ± 0.0091
CCACTTTC | 0.0779 ± 0.016
AATCACCA | 0.0402 ± 0.041
ACAGGCCC | -0.218 ± 0.066
AACTAAAT | -0.0624 ± 0.017
CTGACTGC | -0.133 ± 0.0049
GTGGAGGA | 0.142 ± 0.022
GACACGCC | 0.258 ± 0.0053
AGCTGGTA | -0.035 ± 0.048
CTCAGTCA | 0.0569 ± 0.064
GGAAATTA | -0.269 ± 0.011
TACTCAGA | 0.0139 ± 0.058
ATTAGAGC | -0.25 ± 0.057
ACATCGAT | -0.0175 ± 0.055

Sequence | PBM E-score of 8-mer
ACTAAGGA | -0.291 ± 0.034
TCGCCCGA | -0.0252 ± 0.06
CGGATAGC | 0.0476 ± 0.07
CCGTCAAA | 0.179 ± 0.079
GATTTGAA | -0.13 ± 0.068
GAGAGCCC | -0.055 ± 0.00096
ACAGTCTG | -0.0797 ± 0.05
GAGCCAGA | -0.187 ± 0.076
TACGATAA | 0.0515 ± 0.0021
CAAATTTC | -0.0243 ± 0.048
AACTCGCT | -0.0393 ± 0.016
AGCTCGCA | 0.272 ± 0.011
GACCACTC | 0.0231 ± 0.029
ACATACCG | 0.00128 ± 0.051
AGCATCAT | -0.23 ± 0.027
AAAGGAAG | -0.0477 ± 0.021
GCCTGATA | -0.252 ± 0.072
CTCGCGAA | 0.389 ± 0.012
GTACCTCA | 0.149 ± 0.0072
CTAGGCAC | 0.0675 ± 0.011
GGTAATTA | -0.0737 ± 0.011
GACATGAC | 0.0522 ± 0.028
CCGAATTC | -0.158 ± 0.018
AAGCTCTA | -0.245 ± 0.027
ATCACGGG | 0.0563 ± 0.045

Sequence | PBM E-score of 8-mer
CGACGGCA | 0.0431 ± 0.011
GGAAGTAA | -0.0859 ± 0.036
CGCTGGAA | 0.0154 ± 0.026
ACCATGTC | -0.0105 ± 0.024
CGGTTTTA | -0.0564 ± 0.011
CATTCCCC | -0.0829 ± 0.059
GCGTGACA | 0.345 ± 0.023
CTGCTATA | 0.00769 ± 0.006
CCTAAGCA | -0.0497 ± 0.061
GAAATGCA | -0.0739 ± 0.019
GCGCTGCC | 0.0691 ± 0.025
CAATCGAG | 0.0295 ± 0.067
TCTGCTCA | 0.127 ± 0.027
CAAAAGGG | -0.186 ± 0.085
GAAAAGAC | -0.0794 ± 0.02
CGCCTTAC | 0.264 ± 0.025
CTAAGACA | -0.048 ± 0.012
GACAAATC | 0.0909 ± 0.037
GAAAAAAA | 0.0699 ± 0.098
CCGGTTTC | 0.0518 ± 0.065
AGGCCCTG | -0.0846 ± 0.015
AGCAGTCC | -0.132 ± 0.093
CGCGCTGA | 0.124 ± 0.052
GACATTCA | 0.0899 ± 0.053
ATAGATAC | -0.333 ± 0.018

Sequence | PBM E-score of 8-mer
GTACACGA | -0.243 ± 0.064
CCGTATGA | -0.135 ± 0.026
TTACTGAA | -0.217 ± 0.03
GTCATAAC | 0.0488 ± 0.059
CCACCGGG | -0.0628 ± 0.011
CATTTAAA | -0.257 ± 0.021
CCGGTTTA | -0.198 ± 0.0051
AGGCCAGA | -0.174 ± 0.045
AAAAGTGC | 0.269 ± 0.044
GAATCATA | -0.0556 ± 0.042
CATCACTA | 0.0425 ± 0.0079
AACCCGCG | 0.227 ± 0.049
CGGTGACA | 0.326 ± 0.026
AACATGTG | 0.274 ± 0.059
CATAGCAC | 0.273 ± 0.0041
CCCCGACG | -0.0866 ± 0.12
CTAAACAG | 3e-05 ± 0.024
CTAGACGC | -0.0851 ± 0.0066
CTAAAGAG | -0.218 ± 0.035
ATTACTTA | -0.154 ± 0.05
CTTATTTC | 0.0455 ± 0.019
CGTTACCA | 0.17 ± 0.018

— the supplement of paper PMC4166925
